# Results reported in PubChem BioAssay AID488969 (Vanderbilt High Throughput Screening Facility, 2010).
# In all, about 110,000 compounds were measured (“z-score”: median about -0.1, highest 2% from about 2 on). The list shows a part of the results. Calls of active or inactive are those of the source.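 How the source made its calls: active means z-score in the third read window above 3 or below -3; inactive means the rest.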
# Biological target: Metabotropic glutamate receptor 8 (Rattus norvegicus) (UniProt P70579)
# UniProt P70579, sequence (P70579 whole entry, looked up): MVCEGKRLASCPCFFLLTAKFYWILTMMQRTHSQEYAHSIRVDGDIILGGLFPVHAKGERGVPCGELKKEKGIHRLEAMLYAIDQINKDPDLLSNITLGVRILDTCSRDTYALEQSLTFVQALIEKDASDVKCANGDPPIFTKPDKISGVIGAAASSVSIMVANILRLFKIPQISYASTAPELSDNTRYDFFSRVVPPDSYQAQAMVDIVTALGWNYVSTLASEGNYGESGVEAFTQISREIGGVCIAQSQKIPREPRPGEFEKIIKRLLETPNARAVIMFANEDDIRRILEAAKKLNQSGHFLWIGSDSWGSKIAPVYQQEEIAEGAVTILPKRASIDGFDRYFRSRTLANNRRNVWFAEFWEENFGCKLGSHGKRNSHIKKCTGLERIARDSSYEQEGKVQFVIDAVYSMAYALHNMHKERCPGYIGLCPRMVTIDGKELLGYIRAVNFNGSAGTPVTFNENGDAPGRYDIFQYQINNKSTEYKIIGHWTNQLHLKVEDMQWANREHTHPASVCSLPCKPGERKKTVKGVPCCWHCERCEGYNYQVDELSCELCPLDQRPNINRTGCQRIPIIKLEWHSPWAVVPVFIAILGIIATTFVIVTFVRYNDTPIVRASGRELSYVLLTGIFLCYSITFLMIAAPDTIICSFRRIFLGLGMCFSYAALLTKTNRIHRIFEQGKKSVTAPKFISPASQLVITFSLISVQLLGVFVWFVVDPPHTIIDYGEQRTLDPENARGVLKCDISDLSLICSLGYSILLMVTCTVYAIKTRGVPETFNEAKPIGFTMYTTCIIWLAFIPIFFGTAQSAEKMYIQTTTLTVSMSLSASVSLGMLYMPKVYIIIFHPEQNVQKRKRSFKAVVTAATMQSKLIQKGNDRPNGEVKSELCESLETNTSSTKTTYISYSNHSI
# Assay: rat mGluR8 modulators via GIRK flux, primary screen, cell-based, thallium flux, HTS (AID 488969)
# Conditions: HEK293 rat mGluR8, GIRK (G protein-gated inwardly rectifying potassium channel) thallium flux, FluoZin2; at 10 µM; stronger effect = higher value; submaximal glutamate (EC20) added with thallium
row,SMILES,z-score
1,CCOc1ccccc1N=C1NC(=O)CS1,-0.466
2,COc1ccccc1CNC(=S)NCCc1ccccc1,-0.133
3,O=c1c2c([nH]c3ccccc13)CCCCCC2,-0.0329
4,O=C(Nc1cccc2nsnc12)c1cccs1,-0.327
5,CCOC(=O)/C(=C\c1cccnc1)C(=O)c1cc(C(C)=O)c(Nc2ccccc2)s1,-0.624
6,COC(=O)C(CCSC)NC(=O)CNS(=O)(=O)c1ccc(Cl)cc1 (configuration not stated),-0.63
7,O=C(NC(=S)Nc1ccccc1N1CCCC1)c1ccccc1[N+](=O)[O-],active: 7.29
8,O=C(O)c1ccc(CN(c2ccccn2)S(=O)(=O)c2ccccc2)cc1,-0.675
9,N#C/C(=C\c1ccccc1C(F)(F)F)C(=O)Nc1ccccc1,-0.135
10,O=C(O)CC(C(=O)O)c1cn(Cc2ccccc2)c2ccccc12 (configuration not stated),-0.217
11,CN1CCc2nc(SCc3ccc(C(C)(C)C)cc3)c(C#N)cc2C1,-0.00419
12,Cc1onc(-c2ccccc2Cl)c1C(=O)Nc1cccc2nsnc12,1.17
13,Cc1nc2ncnn2c(C)c1CCC(=O)Nc1csc(N)n1,-0.0552
14,Cc1cc(C(=O)Nc2sc(C)c(C)c2C#N)c(C)o1,1.02
15,Cc1sc2nc(SCC(=O)N(C)Cc3ccccc3)n(-c3ccccc3)c(=O)c2c1C,-0.0809
16,O=C(Nc1ccccc1Cl)N(Cc1nc2ccccc2c(=O)[nH]1)Cc1cccs1,-0.163
17,Nc1cccc(-c2nc3ccccc3[nH]2)c1,0.485
18,Cc1nn(Cc2ccccc2)c(C)c1NC(=O)CSc1nc(-c2ccccc2)nc2c1cnn2-c1ccccc1,-0.911
19,CCN1CCN(C(C)C(=O)Nc2c(C)n(C)n(-c3ccccc3)c2=O)CC1 (configuration not stated),-0.129
20,COc1ccc2cc(C(=O)Nc3ccc(F)cc3)sc(=O)c2c1OC,0.534
21,Cn1cc(/C=C(\C#N)C(=O)Nc2ncc(Cc3cccc(Cl)c3)s2)c2ccccc21,-2.38
22,CCOC(=O)c1cnc(-c2ccccc2)nc1Oc1ccc(Cl)cc1,-0.241

row,SMILES,z-score
1,O=C(NCCCN1CCCCCC1)c1ccc(CS(=O)(=O)Cc2ccccc2F)o1,-0.0242
2,COc1cc(NC(=O)c2ccc(CNc3c(N4CCOCC4)c(=O)c3=O)cc2)cc(OC)c1,0.0157
3,COc1ccc(C(=O)Nc2ccc(-c3ccc(C)o3)cc2)cc1S(=O)(=O)N1CCOCC1,0.146
4,O=C(NCCc1ccc(Cl)cc1)C1CCN(S(=O)(=O)c2cccc3nonc23)CC1,0.395
5,Cc1cc2oc(=O)cc(COC(=O)Cn3cnnn3)c2cc1C(C)C,1.41
6,CCO/C(C)=N/n1c2nc3ccccc3nc2c2c(=O)n(Cc3ccccc3Cl)c(C)nc21,-0.242
7,CC(C)N(C(=O)CSc1nnc(CN2CCCCCC2=O)n1-c1ccccn1)C(C)C,1.02
8,Cc1ccc(NC(CC(=O)c2ccccc2)c2ccc(F)cc2)cc1 (configuration not stated),-0.179
9,COc1cccc(-n2c(SCC#N)nnc2-c2cnccn2)c1,-0.0135
10,Cc1ccc(-c2noc(=O)n2CC(=O)Nc2ccc(S(=O)(=O)NC3CC3)cc2)cc1,0.203
11,O=C(CC1S/C(=N/N=C/C=C/c2ccccc2)NC1=O)Nc1ccc(Cl)c(Cl)c1 (configuration not stated),0.281
12,C=CCc1cccc2cc(C(=O)NC)c(=O)oc12,-0.419
13,CCN(CC)c1ccc(/C=N/NC(=O)C(O)(c2ccccc2)c2ccccc2)o1,-0.965
14,Cc1ccc(/C=C2/CCc3c([nH]c4ccccc34)C2=O)cc1,0.107
15,COCCCn1c(SCC(=O)Nc2cccc(C)n2)nnc1-c1ccco1,-0.45
16,CCCn1c2c(c(O)c(C(=O)Nc3ncccc3O)c1=O)CCCC2,-2.32
17,Cc1ccc(S(=O)(=O)NC(=O)Nc2cc(C)ccc2F)cc1,-0.0823
18,Cc1cc(Br)ccc1NC(=O)CN1C(=O)CCC1=O,-0.263
19,CN(C)c1ccc(C(=O)n2nnc3ccccc32)cc1,0.0938
20,Cn1nc(-c2ccc(Cl)cc2)c2cc(C(=O)N3CCCC3)sc21,-1.23
21,Cc1ccccc1CS(=O)(=O)c1nnc([C@H](CC(C)C)NC(=O)OC(C)(C)C)o1,-0.321
22,CCN(CC)c1cc(C)c2ccccc2n1,0.00451

row,SMILES,z-score
1,O=C(Nc1ccc(N2CCCC2)c(Cl)c1)c1cccc(-c2cc3ccccc3oc2=O)c1,-0.0676
2,O=C(NCCN1C(=O)S/C(=C\c2ccccc2F)C1=O)C1CCN(S(=O)(=O)c2cccs2)CC1,-0.251
3,COCCOC(=O)C1=C(C)NC(=O)NC1c1cccs1 (configuration not stated),0.344
4,COc1ccccc1NC(=O)c1ccc(COc2ccccc2OC)o1,-0.851
5,O=C(Nc1ccccc1C(=O)NCc1ccccc1)c1ccccc1,-0.543
6,CN(CC(=O)Nc1nc2ccccc2s1)S(=O)(=O)c1ccccc1,-0.0171
7,COc1cc(C2C(C#N)=C(N)OC3=C2C(=O)CCC3)ccc1OC(=O)N1CCOCC1 (configuration not stated),0.00682
8,O=C(Nc1ccc2c(c1)OCO2)c1c(F)cccc1F,0.0857
9,CCOC(=O)Nc1ccc(S(=O)(=O)Nc2nccc(C)n2)cc1,-0.0787
10,N=c1c(S(=O)(=O)c2ccccc2)cc2c(=O)n3ccccc3nc2n1CCN1CCOCC1,1.1
11,CCN1CCN(Cc2ccc(OCc3ccccc3)c(OC)c2)CC1,0.958
12,Cn1cc([N+](=O)[O-])c(C(=O)Nc2cc(Oc3ccccc3)cc([N+](=O)[O-])c2)n1,-0.26
13,CCSc1nnc(N(CCC(=O)O)CCC(=O)O)s1,0.825
14,Cn1cccc1C(=O)NC(=O)COC(=O)CNS(=O)(=O)c1ccc(Br)cc1,-1.04
15,Nc1ccc(C(=O)c2ccc3c(c2)OCCO3)cc1N,-0.846
16,COc1ccc(NC(=O)c2cc(S(=O)(=O)N3CCS(=O)(=O)CC3)ccc2Cl)cc1,0.0761
17,O=C(COC(=O)c1ccc(S(=O)(=O)N2CCCC2)cc1)NCc1ccccc1,-0.183
18,COc1ccc(CCNC(=O)c2cc(-c3cccs3)on2)cc1OC,-0.0843
19,Fc1ccccc1-c1ccc(/C=N/Nc2nc3ccccc3[nH]2)o1,-0.161
20,COc1cccc(CNC(=O)C2CCCN(S(=O)(=O)c3cnc[nH]3)C2)c1 (configuration not stated),0.0203
21,COc1ccc(Cn2c(=O)[nH]c3cc(C(=O)NCCCN4CCCCC4)ccc3c2=O)cc1,0.828
22,O=C1C(Cc2ccccc2)NC(=S)N1c1ccccc1 (configuration not stated),-0.257

row,SMILES,z-score
1,COCCn1c(SCC(=O)Nc2ccc(C)cc2)nc2c(oc3ccccc32)c1=O,-0.163
2,CC(=O)c1ccc(NC(=O)CCc2c(C)nc3ncnn3c2C)cc1,-0.144
3,CC1CCc2nc(NC(=O)C3CC3)sc2C1 (configuration not stated),0.198
4,COc1ccc(N(CC(=O)N2CCc3ccccc32)S(=O)(=O)c2c(C)noc2C)cc1,-1.01
5,COc1ccc(-c2noc(Cc3ccc(Cl)cc3)n2)cc1OC,-0.486
6,COc1ccc(S(=O)(=O)NC(CC(=O)NCc2ccc3c(c2)OCO3)c2ccco2)cc1 (configuration not stated),-0.513
7,CC(=O)Nc1ccc(S(=O)(=O)N2CCN(C3CCCCCCC3)CC2)cc1,-0.0271
8,O=C(O)c1ccc(OCc2occc2C(=O)O)cc1,-0.0351
9,CCCCCc1ccc(CC(=O)O)cc1,-0.425
10,Cc1cccc(/C(N)=N/OC(=O)N2CCOCC2)c1,-0.129
11,COc1ccc(S(=O)(=O)N(Cc2cc3cc(C)ccc3[nH]c2=O)CC2CCCO2)cc1 (configuration not stated),-0.169
12,Cc1csc(N(C(=O)c2ccc(S(=O)(=O)N(C)C)cc2)c2ccccc2)n1,0.4
13,C=CCn1c(=O)c2ccccc2n2c(SCC(=O)Nc3sc(C(=O)N(CC)CC)c(C)c3C(=O)OCC)nnc12,-0.785
14,CCOc1cc(C(=O)Nc2ncccn2)cc(OCC)c1OCC,0.196
15,CC(=O)c1c(C)nc2ccc(Cl)cn12,-0.33
16,COc1ccc(S(=O)(=O)N2CCOCC2)cc1C(=O)Nc1nc2ccccc2s1,-0.183
17,Cc1ccc(S(=O)(=O)N[C@H](C(=O)N2CCC(C(=O)NCC(=O)O)CC2)C(C)C)cc1,0.891
18,COC(=O)Cc1ccc(NC(=S)N2CCN(c3ccc(OC)cc3)CC2)cc1,-0.0129
19,COc1ccc(CN2CC(C(=O)NCCN3CCN(c4ccccc4F)CC3)CC2=O)cc1 (configuration not stated),0.0541
20,COc1cc(NC(=O)c2cccs2)cc(OC)c1,-0.15
21,CCCNCC(O)Cn1c2ccccc2n2c(=O)cc(C)c(C#N)c12 (configuration not stated),0.0963
22,COc1ccc(NC(=O)C2CCCN(S(=O)(=O)c3cccc4nonc34)C2)cc1 (configuration not stated),0.00602

row,SMILES,z-score
1,COc1ccc(OC)c(S(=O)(=O)n2nc(-c3ccccc3)cc2N)c1,0.545
2,CCOC(=O)N1CCN(CCC(=O)Nc2ccc(Br)cc2)CC1,-0.291
3,COc1cc(OC)c(C2C(C#N)=C(N)Oc3cc(C)n(CCCN4CCOCC4)c(=O)c32)cc1OC (configuration not stated),-0.246
4,NC(=S)N/N=C/c1ccc(-c2cccc([N+](=O)[O-])c2)o1,0.41
5,CCOC(=O)c1ccc(-n2c(C)nc3c(cnn3-c3ccccc3Cl)c2=O)cc1,-0.636
6,COc1ccc(-c2cc(C(=O)Nc3c(C)nn(Cc4ccc(Cl)cc4)c3C)no2)cc1,-0.456
7,O=c1nc(C(F)(F)F)nc2ccccn12,-0.00835
8,CCOC(=O)CNC(=O)Cn1cnc2c(nnn2-c2ccc(F)cc2)c1=O,-0.338
9,O=C(Nc1nc(-c2ccccc2)cs1)C1COc2ccccc2O1 (configuration not stated),1.23
10,Nc1ccc(-n2cnc3cc([N+](=O)[O-])ccc32)cc1,-0.118
11,CCCOc1ccc(-c2c(=O)n(OCc3ccc([N+](=O)[O-])cc3)c3ccccc3[n+]2[O-])cc1,0.221
12,COc1ccc(N(C(=O)CCl)C(C)(C(=O)Nc2c(C)cccc2C)c2ccccn2)cc1 (configuration not stated),-0.277
13,CC(=O)Nc1ccc(S(=O)(=O)N(C)CC(=O)OCC(=O)NC(C)C23CC4CC(CC(C4)C2)C3)cc1 (configuration not stated),-0.181
14,C=CCN1C(=O)/C(=C\c2ccc(C)cc2)N=C1SCC(=O)NCCC,-0.81
15,COC(=O)c1cc(NC(=O)Nc2ccccc2)ccc1Cl,-0.321
16,CCCC(=O)c1ccc(-c2ccccc2)cc1,0.29
17,c1ccc(OCCCn2nnc(-c3cccnc3)n2)cc1,-0.0922
18,CCC1CCCCN1CCNC(=O)c1[nH]c(C)c(C(C)=O)c1C (configuration not stated),0.00481
19,CCN(CC)S(=O)(=O)c1ccc2oc(C(=O)NCc3ccc(C)cc3)c(C)c2c1,-0.591
